Data from publication PMC4336329 (PLoS ONE, 2015).
Hit rate of the full screen: of about 310,000 compounds, about 2,200 (0.71%) showed an effect of 50% or more. Effects have a minus sign here. The list shows a part of the results.

Target: human ether-à-go-go-related gene (hERG) potassium channel (human, UniProt Q12809)
Assay: primary screen, population patch clamp on CHO cells stably expressing hERG

human ether-à-go-go-related gene (hERG) potassium channel, sequence (Q12809 whole entry, looked up): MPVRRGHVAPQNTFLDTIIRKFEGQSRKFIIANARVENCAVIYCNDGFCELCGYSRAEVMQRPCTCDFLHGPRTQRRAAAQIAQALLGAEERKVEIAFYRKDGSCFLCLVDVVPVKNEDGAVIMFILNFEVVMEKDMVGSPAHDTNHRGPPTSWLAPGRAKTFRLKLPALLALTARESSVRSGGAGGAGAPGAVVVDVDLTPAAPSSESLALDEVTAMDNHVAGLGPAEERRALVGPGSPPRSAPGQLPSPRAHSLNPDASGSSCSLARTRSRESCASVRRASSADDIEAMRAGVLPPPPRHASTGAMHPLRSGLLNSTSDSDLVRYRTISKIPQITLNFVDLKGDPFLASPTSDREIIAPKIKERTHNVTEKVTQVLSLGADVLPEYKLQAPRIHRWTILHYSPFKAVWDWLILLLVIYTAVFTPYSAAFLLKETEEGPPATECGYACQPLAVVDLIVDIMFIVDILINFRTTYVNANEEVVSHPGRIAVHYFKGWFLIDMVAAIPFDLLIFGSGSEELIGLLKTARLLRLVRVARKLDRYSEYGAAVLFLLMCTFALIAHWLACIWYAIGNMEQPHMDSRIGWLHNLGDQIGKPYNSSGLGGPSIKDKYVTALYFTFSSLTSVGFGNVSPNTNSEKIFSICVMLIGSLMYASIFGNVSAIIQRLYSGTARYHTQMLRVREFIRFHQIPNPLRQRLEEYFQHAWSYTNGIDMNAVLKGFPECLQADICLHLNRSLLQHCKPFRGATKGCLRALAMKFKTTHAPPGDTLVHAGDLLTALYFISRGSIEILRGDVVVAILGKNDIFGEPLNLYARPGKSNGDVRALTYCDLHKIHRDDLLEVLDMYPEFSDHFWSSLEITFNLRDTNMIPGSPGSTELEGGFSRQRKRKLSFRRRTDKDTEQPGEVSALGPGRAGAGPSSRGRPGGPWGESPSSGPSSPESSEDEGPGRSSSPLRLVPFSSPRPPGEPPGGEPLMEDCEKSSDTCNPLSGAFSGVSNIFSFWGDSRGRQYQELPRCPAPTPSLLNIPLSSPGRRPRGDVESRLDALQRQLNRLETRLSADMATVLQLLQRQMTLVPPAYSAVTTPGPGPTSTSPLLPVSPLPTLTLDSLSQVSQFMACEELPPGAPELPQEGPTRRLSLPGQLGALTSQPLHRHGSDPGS

Compound | hERG current change (%, negative = inhibition) at 1uM
Cc1ccc(NC(=O)CSCC(=O)OC(C)C(=O)Nc2ccc(S(N)(=O)=O)cc2)c(C)c1 (centres unmarked) | 12.3%
CC(C)NC(=O)C1CCN(c2ccc(S(=O)(=O)N3CCOCC3)cc2Cl)CC1 | 13.9%
O=C(CSc1nnc(-c2ccncc2)n1C1CCCCC1)Nc1ccccc1 | 5.16%
Cc1c(NC(=O)CN2C(=O)C(=O)N(Cc3ccccc3)C2=O)c(=O)n(-c2ccccc2)n1C | 13.8%
Cc1ccccc1NC(=S)NCCc1c[nH]c2ccccc12 | 14%
CN1OC(COC(=O)c2ccccc2)CC1c1ccccc1 (centres unmarked) | 3.71%
CN1C(=O)C(CCC(N)=O)NC1=S (centres unmarked) | 1.9%
CCOc1ccc(N2C(=O)C(CC(=O)Nc3ccccc3)N(Cc3ccccn3)C2=S)cc1 (centres unmarked) | 10.1%
CC(C)CN1CCN(Cc2ccccc2C(F)(F)F)CC1CCO (centres unmarked) | 8.39%
O=C(Nc1ccc(F)cc1)C(Sc1nc2ccccc2[nH]1)c1ccccc1 (centres unmarked) | 8.36%
COc1ccc(S(=O)(=O)N2CCCCC2)cc1NC(=O)c1cccs1 | 16.8%
Cc1ccc(NCN2C(=O)c3ccccc3C2=O)c(C)c1 | -3.84%
CCOc1ccc(N2C(=O)/C(=C\c3ccc(O)c(OC)c3)S(=O)(=O)C2c2cccc([N+](=O)[O-])c2)cc1 (centres unmarked) | 20.8%
O=C(/C=C/c1cccc([N+](=O)[O-])c1)Nc1cccc(NC(=O)c2cccs2)c1 | 7.83%
COc1ccc(-n2nnnc2SCC(=O)Nc2cccc(NC(C)=O)c2)cc1OC | 8.98%
C/C(=N/NS(=O)(=O)c1cc(C)ccc1C)c1ccncc1 | 12.8%
CCOc1ccc(C(=O)n2cc(C(=O)OC)c3ccccc32)cc1OCC | 12.4%
O=C(Cc1ccccc1[N+](=O)[O-])OCN1C(=O)c2ccccc2C1=O | 11.4%
CCOc1ccc(-c2cc(C(=O)N3CCCC3)c3ccccc3n2)cc1 | 15.7%
COc1cc(/C=N/N=C2/C(=O)Nc3ccccc32)cc(OC)c1O | 5.75%
COc1ccc2ccccc2c1/C=N/NC(=O)c1cccc(C)c1 | 12.1%
Cc1ccc(NC(=O)NCc2ccncc2)cc1Cl | 3.82%
O=c1oc2ccccc2cc1-c1ccccc1 | 17.6%

Compound | hERG current change (%, negative = inhibition) at 1uM
CC(C)(C)c1ccc(-n2ncc3c2CCCC3NC(=O)c2csnn2)cc1 (centres unmarked) | 9.11%
Cc1cccc(N2C(=O)CC(Sc3nc(C)c4c(n3)CCCC4)C2=O)c1 (centres unmarked) | 2.93%
CC1CCC(C(C)C)C(OC(=O)CSc2nc(N)cc(=O)[nH]2)C1 (centres unmarked) | 14%
CCc1ccc(NC(=O)Cn2nnc(C(=O)NCc3ccco3)c2N)cc1 | 15.6%
O=C(Nc1ccncc1)c1ccc(Cl)c(S(=O)(=O)N2CCCCC2)c1 | 5.29%
O=C(NC1CC(=O)c2sccc21)c1ccc(Cl)cc1Cl (centres unmarked) | -3.93%
CCOc1ccccc1NS(=O)(=O)c1ccc(-n2cccn2)cc1 | 3.25%
CCCc1cc(=O)[nH]c(SCC(=O)Nc2ccc(C)cc2)n1 | 4.16%
O=C(O)CC1Sc2nnc(COc3ccc(Cl)cc3)n2N=C1c1ccccc1 (centres unmarked) | 16.8%
CCCCn1nc(C(=O)Nc2ccccc2N2CCCC2)c2ccccc2c1=O | 3.71%
O=C(c1cccc(Oc2ccccc2)c1)N1CCN(c2ccccn2)CC1 | 4.42%
CCCC1(CCC)C(=O)NC(=NCc2ccccc2)NC1=O | 11.6%
CC1(C)CC(=O)N(CC(=O)O)c2ccccc2S1 | 13.8%
O=C(NC(=S)Nc1ccc(N2CCCCC2)cc1)c1ccco1 | -16.6%
COC(=O)c1[nH]c2ccc(F)cc2c1NC(=O)CCN1CC(C)OC(C)C1 (centres unmarked) | 14.6%
CCOc1ccc(C(=O)CCC(=O)Nc2ccncc2)cc1 | -0.519%
CCC(C)NC(=O)c1cc(C)no1 (centres unmarked) | 12.3%
COCCNC(=O)C(=O)NNS(=O)(=O)c1ccc2ccccc2c1 | 4.3%
COc1ccccc1S(=O)(=O)Cc1ccc(C(=O)N2CCN(c3cccc(Cl)c3)CC2)o1 | 2.08%
O=C(O)c1ccc(-n2c(-c3cc(-c4ccco4)[nH]n3)n[nH]c2=S)cc1 | 9.91%
COc1ccc(-n2nnnc2-c2ccc(S(C)(=O)=O)cc2Cl)cc1 | 14.3%
CC(=O)c1cccc(NC(=O)C(CC(C)C)NC(=O)C2CCCCC2)c1 (centres unmarked) | 3.65%
O=C(NCCc1ccc(Cl)cc1)C1COc2ccccc2O1 (centres unmarked) | -4.51%

Compound | hERG current change (%, negative = inhibition) at 1uM
CCOC(=O)C1CCN(Cc2ccccc2C)CC1 | 13.4%
COc1cc([N+](=O)[O-])ccc1NC(=O)Oc1ccc(NC(C)=O)cc1 | 7.14%
COCCn1c(SCC(=O)Nc2ccccc2OC)nc2c([nH]c3ccccc32)c1=O | 10.6%
CCOC(=O)CCCNC(=O)CCNC(=O)c1ccc(OCCC(C)C)cc1 | 8.59%
Brc1ccc(-c2csc(/N=C/N3CCCC3)n2)cc1 | -5.23%
Cl.OC(COCCC12CC3CC(CC(C3)C1)C2)CN1CCCCC1 (centres unmarked) | 1.22%
C/C(CCc1ccc2c(c1)OCO2)=N\NC(=O)c1ccccc1Br | 4.54%
O=C(COC(=O)c1cccc(Br)c1)NCCc1ccc(F)cc1 | 7.07%
O=C(CNC(=O)c1ccccc1Br)N/N=C/c1cccnc1 | 17.6%
Nc1nc(Oc2ccc(F)cc2)c(Br)c(=O)[nH]1 | 12%
CC(=O)[C@@H]1[C@@H](C(=O)c2ccccc2)[C@]2(C(=O)Nc3ccccc32)[C@H]2C=Cc3cc(F)ccc3N12 | 4.44%
Cc1cc(NC(=O)c2cc(-c3ccccc3)on2)n(-c2ccccc2)n1 | 7.88%
COc1cnc(-c2ccccn2)nc1Oc1cccc(Cl)c1 | 5.66%
CCOC(=O)c1c(C)[nH]c(C)c1C(=O)COC(=O)/C=C/c1cccc(Cl)c1 | 11%
O=C(Nc1cc(C(F)(F)F)ccc1N1CCOCC1)c1ccc[n+]([O-])c1 | 10.6%
O=C(CN1C(=O)COc2ccccc21)N1CCN(C2CCCCC2)CC1 | 13.1%
O=S(=O)(c1ccc2c(c1)OCCO2)N1CCCN(S(=O)(=O)c2c(F)cccc2F)CC1 | 6.58%
Cc1ccc2[nH]c(C)c(CCNC(=O)NC3CCCCC3)c2c1 | 12.7%
CCN(C(=O)COC(=O)CCc1c[nH]c2ccccc12)c1c(N)n(Cc2ccccc2)c(=O)[nH]c1=O | 4.03%
CCSc1nnc(NC(NC(=O)c2ccco2)(C(F)(F)F)C(F)(F)F)s1 | 3.49%
COc1ccc(Cc2n[nH]c(=S)n2-c2ccc3c(c2)OCCO3)cc1 | 17.1%
O=c1[nH]c(-[n+]2ccccc2)c(/C=N/N=C(\[O-])c2ccccc2)s1 | 2.36%
CCSc1nnc2c(n1)[nH]c1c(C)cccc12 | 8.04%

Compound | hERG current change (%, negative = inhibition) at 1uM
CC(C)CNC(=O)c1cc([N+](=O)[O-])ccc1N1CCOCC1 | 18.3%
O=C(OCC[NH+]1CCOCC1)c1cccnc1.[Cl-] | 8.84%
O=C(COC(=O)C1=COCCO1)NCc1ccc(F)cc1 | 5.48%
Cc1nn(C)c(C)c1NC(=O)Nc1ccc(Cl)c(Cl)c1 | 5.18%
COc1ccc(-n2nnnc2SCC(=O)Nc2ccccc2N2CCOCC2)cc1OC | 4.54%
CC(C)(C)c1ccc(Cn2c(=O)cnc3ccccc32)cc1 | 4.94%
Cc1cccc(NC(=S)N(CCCN2CCOCC2)Cc2ccco2)c1 | -5.79%
COC(=O)[C@H](Cc1c[nH]c2ccccc12)NC(=O)NCc1ccc(OC)c(OC)c1 | 13.8%
O=[N+]([O-])c1ccc2c(c1)nc1n2CCSC1 | 9.89%
Cc1ccc(S(=O)(=O)N2CCOCC2)cc1C(=O)NC1CCCCC1 | 8.88%
Nc1n[nH]c(N)c1N=Nc1ccc(Cl)cc1Cl | 0.961%
N#Cc1ccc(-c2ccc(F)cc2)nc1Oc1ccccc1 | 11.3%
Nc1ncc2[nH]cnc2n1.O=[N+]([O-])O | 7.43%
CN(C)c1ccc(/C=N/NC(=O)C(=O)/C=C2\NC3(CCCC3)Cc3ccccc32)cc1 | 11.8%
Cc1cc(OCC(=O)N(Cc2ccco2)c2c(N)n(Cc3ccccc3)c(=O)[nH]c2=O)ccc1Cl | 6.22%
CCN(C(=O)c1sc(N)c(C#N)c1C)C1CCCCC1 | 7.77%
COc1ccc(N(CC(=O)Nc2ccccc2C(=O)N2CCCC2)S(C)(=O)=O)cc1 | 16.2%
O=C(O)C(F)(F)F.O=C1C(Cc2ccccc2)Nc2ncnc(N3CCCCC3)c2N1Cc1ccc(Cl)cc1 (centres unmarked) | 9.31%
O=C(c1ccc(COc2ccccc2Br)cc1)N1CCCCC1 | 10.3%
CC(=O)Nc1ccc(NC(=O)c2cccc(S(=O)(=O)N(C)C3CCCCC3)c2)cc1 | 14%
